Assay results reported in article PMC10755785 (The Journal of Biological Chemistry, 2023).

Columns and labels:
Assay in all cases: pull-down
[1] = molecular target: T1, RssB^D104A (Escherichia coli, UniProt P0AEV1 1-337, D104A)
T1 sequence: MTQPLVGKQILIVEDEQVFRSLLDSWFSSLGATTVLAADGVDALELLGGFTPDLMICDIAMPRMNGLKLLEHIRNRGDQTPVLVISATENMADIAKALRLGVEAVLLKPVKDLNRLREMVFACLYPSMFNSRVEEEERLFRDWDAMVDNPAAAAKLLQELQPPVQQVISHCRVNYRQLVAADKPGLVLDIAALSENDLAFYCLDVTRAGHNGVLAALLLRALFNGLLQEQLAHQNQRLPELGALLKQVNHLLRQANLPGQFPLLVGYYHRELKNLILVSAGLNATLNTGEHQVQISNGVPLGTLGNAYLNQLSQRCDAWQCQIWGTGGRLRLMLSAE

[2] = molecular target: T2, RssB^R99D (Escherichia coli, UniProt P0AEV1 1-337, R99D)
T2 sequence: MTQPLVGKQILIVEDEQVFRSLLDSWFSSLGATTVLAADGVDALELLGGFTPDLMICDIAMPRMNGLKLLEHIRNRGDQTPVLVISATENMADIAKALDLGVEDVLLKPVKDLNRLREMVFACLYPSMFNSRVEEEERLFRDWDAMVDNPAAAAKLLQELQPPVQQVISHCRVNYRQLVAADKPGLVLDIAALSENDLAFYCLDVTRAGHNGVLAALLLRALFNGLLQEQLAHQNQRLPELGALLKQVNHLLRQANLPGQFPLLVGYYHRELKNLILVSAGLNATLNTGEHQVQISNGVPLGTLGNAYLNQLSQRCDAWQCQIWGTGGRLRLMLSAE

[3] = molecular target: T3, RssB^F129A;S131A (Escherichia coli, UniProt P0AEV1 1-337, F129A | S131A)
T3 sequence: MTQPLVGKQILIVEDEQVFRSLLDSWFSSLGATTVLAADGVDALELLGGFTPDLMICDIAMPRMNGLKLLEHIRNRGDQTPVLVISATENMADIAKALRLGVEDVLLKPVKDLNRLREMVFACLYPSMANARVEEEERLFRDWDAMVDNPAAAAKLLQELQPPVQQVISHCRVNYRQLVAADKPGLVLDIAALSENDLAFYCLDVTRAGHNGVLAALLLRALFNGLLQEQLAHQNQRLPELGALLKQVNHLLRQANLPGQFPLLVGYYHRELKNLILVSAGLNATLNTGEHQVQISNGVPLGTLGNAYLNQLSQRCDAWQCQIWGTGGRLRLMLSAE

Measured: binding result

B1: σ^s (RpoS), His-tagged (natural protein)
chain: not shown
binds: all assays above
